Results published in PubChem BioAssay AID894 (National Center for Advancing Translational Sciences (NCATS), 2007).
The whole screen tested about 150,000 compounds, of which about 6,500 (4.3%) were called active. The shares of active, inactive and inconclusive entries below differ from those in the screen. Calls follow the shape of the dose curve; as a rule, active = well fitted inhibition curve with a large enough effect (not every such curve was filed as active); inconclusive = small, poorly fitted or top-dose-only effect, or another doubt; inactive = no such curve, though single readings can be large or run the other way. Potencies of inconclusive entries are left out as doubtful fits.

target: 15-hydroxyprostaglandin dehydrogenase [NAD(+)] (Homo sapiens) (UniProt P15428); experiment: qHTS Assay for Inhibitors of HPGD (15-Hydroxyprostaglandin Dehydrogenase); details: purified HPGD, NADH fluorescence kinetic, PGE2 substrate; activity change, negative = inhibition: stronger effect = lower value
Outline: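 20 nM HPGD preincubated 15 min at room temperature with compound in 50 mM Tris-HCl pH 8, 0.01% Tween 20. Started with 1 mM NAD+ and 30 uM prostaglandin E2; NADH fluorescence (360/450 nm) read 5 times over 30-s intervals, last minus first.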
% is scaled to controls: 0 for no effect and ±100 for the full control effect; potency is read from the fitted curve at half-maximal effect; tags tell the direction and shape of the fitted curve.

UniProt P15428, sequence (P15428 whole entry, looked up): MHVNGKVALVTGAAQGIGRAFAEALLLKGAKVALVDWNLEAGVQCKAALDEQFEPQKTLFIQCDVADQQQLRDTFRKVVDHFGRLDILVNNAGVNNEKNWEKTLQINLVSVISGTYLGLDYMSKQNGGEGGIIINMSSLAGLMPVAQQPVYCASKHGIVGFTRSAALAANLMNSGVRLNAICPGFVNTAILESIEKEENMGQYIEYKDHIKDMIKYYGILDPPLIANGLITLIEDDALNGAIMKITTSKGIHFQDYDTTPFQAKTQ

| SMILES | Potency | activity change, negative = inhibition |
| --- | --- | --- |
| COc1cccc(NC(=O)C(OC(=O)/C=C/c2ccc3c(c2)OCO3)c2ccccc2)c1 (stereo unspecified) | inconclusive [inhibitor, partial curve] | – |
| COC(=O)c1[nH]c(C)c(/C(O)=C2\C(=O)C(=O)N(CCCN3CCOCC3)C2c2ccccn2)c1C (stereo unspecified) | inconclusive [inhibitor, partial curve] | – |
| Cc1ccc(C2(CC(=O)Nc3nccs3)CCOC(C(C)C)C2)cc1 (stereo unspecified) | inconclusive [inhibitor, single point] | – |
| O=C(CSc1nnc(-c2ccco2)c(-c2ccco2)n1)Nc1ccccc1 | active: 25.1 µM | – |
| CC(NC(=O)C1CCC(CNc2c(N3CCOCC3)c(=O)c2=O)CC1)c1ccccc1 (stereo unspecified) | inconclusive [inhibitor, single point] | – |
| O=c1[nH]c(=O)n(Cc2ccccc2)c2nc(-c3ccco3)cc(C(F)(F)F)c12 | inconclusive [inhibitor, partial curve] | – |
| COc1ccccc1CCn1c(=O)c(-c2cc(F)cc(F)c2)nc2cncnc21 | inconclusive [inhibitor, single point] | – |
| CN(c1ccccc1)S(=O)(=O)c1ccc(NC(=S)NC(=O)C2CC2)cc1 | – | inactive: -6.5% |
| O=C(/C=C\c1cn(-c2ccccc2)nc1-c1ccccc1)Nc1nccs1 | inconclusive [inhibitor, partial curve] | – |
| CN(C)c1ccc(NC(=O)CSCc2nc3c(nnn3Cc3ccc(F)cc3)c(=O)[nH]2)cc1 | active: 22.4 µM | – |
| c1c2c(cc3sc(N4CCCCC4)nc13)OCO2 | active: 22.4 µM | – |
| CCOC(=O)c1nc(-c2ccc(OC)c(OC)c2)cnc1C#N | inconclusive [inhibitor, partial curve, poor fit] | – |
| CC1=NOC(=O)/C1=C\c1ccc(-c2cc(Cl)ccc2Cl)o1 | active: 1.41 µM | – |
| COC(=O)c1c(NC(=O)CN2CCC3(O)CCCCC3C2c2cc(OC)ccc2OC)sc(C)c1C (stereo unspecified) | inconclusive [inhibitor, partial curve] | – |
| CC(=O)C(C)Oc1ccc2c3c(c(=O)oc2c1)CCCCC3 (stereo unspecified) | inconclusive [inhibitor, partial curve] | – |
| CCS(=O)(=O)Nc1cc(-c2nc3cccnc3s2)ccc1C | inconclusive [inhibitor, partial curve] | – |
| Cc1ccc(C)c(Cn2nnc3c(=O)[nH]c(C4CCCN(C(=O)C5CCC5)C4)nc32)c1 (stereo unspecified) | active: 4.47 µM | – |
| CC(C)(C)c1cn(-c2ccc(F)cc2)c(=S)[nH]1 | inconclusive [inhibitor, single point] | – |
| CCCN1C(=O)C(Cc2nc3ccccc3c(=O)n2C)c2ccccc21 (stereo unspecified) | – | inactive: -6.11% |
| Cc1nn(-c2ccccc2Cl)c(Cl)c1/C=C(\C#N)C(N)=O | – | inactive: -10.9% |
| COc1ccc(-c2nnc3sc(-c4ccco4)nn23)cc1OC | inconclusive [inhibitor, partial curve] | – |
| CCOC(=O)CSc1nn(C)c(=S)s1 | inconclusive [inhibitor, partial curve] | – |
| Cn1c(SCC(=O)NC2CCCCC2)nnc1-c1cccc(N)c1 | inconclusive [inhibitor, partial curve, poor fit] | – |

| SMILES | Potency | activity change, negative = inhibition |
| --- | --- | --- |
| COc1ccc(CNC(=O)CN(C2CCCCC2)S(C)(=O)=O)cc1 | – | inactive: -1.78% |
| Cn1nc(C(F)(F)F)c(C#N)c1N1CCN(c2ccccc2)CC1 | – | inactive: -11.8% |
| O=C(NCCSCc1ccco1)Nc1ccc(Cl)cc1 | – | inactive: -12% |
| N#Cc1cc2c([nH]c1=S)CCCCCC2 | active: 7.94 µM | – |
| Cc1c(/C=N/NC(=O)c2ccc(O)cc2)c2ccccn2c1C(=O)c1ccc(F)cc1 | – | inactive: -7.71% |
| C/C=C(\C)C(=O)OC1[C@@H]2C=C3C4CC(=O)OC(c5ccoc5)[C@]4(C)CCC3[C@@](C)(C2=O)C(C(O)C(=O)OC)C1(C)C (stereo partly specified) | – | inactive: 2.08% |
| CCOc1ccc(C(=O)NC(=S)Nc2cccnc2)cc1 | – | inactive: -3.12% |
| O=CN/C=C/c1cc(F)cc(F)c1F | – | inactive: -1.86% |
| CCCCCCCCCCCCCCC[C@@H](O)[C@H](CO)NC(=O)CCCCCCC | – | inactive: -3.99% |
| Cc1ccc(S(=O)(=O)N2c3ccccc3NC(=O)C2CC(=O)Nc2ccccc2)cc1 (stereo unspecified) | – | inactive: -7.9% |
| Cc1cc(C(=O)NNC(=S)NCC(C)C)no1 | – | inactive: -14.3% |
| Cc1cc(-c2ccccc2)c(C#N)c(N)n1 | inconclusive [inhibitor, partial curve] | – |
| CCOC(=O)c1cc(-c2ccc(OC(F)F)cc2)nc2c1c(=O)[nH]c(=O)n2C | inconclusive [inhibitor, partial curve] | – |
| CCOC(=O)c1ccc(Nc2ncnc3ccc(C)cc23)cc1 | inconclusive [inhibitor, single point] | – |
| CCN1CCN(C(=O)c2cn(CCOC)c(=O)c3c2c2ccccc2n3C)CC1 | inconclusive [inhibitor, partial curve] | – |
| COc1ccc(-c2nc3nc(C)c(Cc4ccccc4)c(=O)n3[nH]2)cc1 | inconclusive [inhibitor, single point] | – |
| Cc1ccccc1NCC(=O)N/N=C/C(Br)=C/c1ccccc1 | inconclusive [inhibitor, partial curve, poor fit] | – |
| O=C(CSCC(=O)c1ccccc1)Nc1ccccc1Cl | inconclusive [inhibitor, single point] | – |
| COc1ccc(-c2nc3cnc(OC)nc3n(Cc3cccs3)c2=O)cc1 | inconclusive [inhibitor, full curve] | – |
| Cc1cccc(Nc2nnc(SCC(=O)Nc3cccc(S(=O)(=O)N4CCCCC4)c3)s2)c1 | active: 20 µM | – |
| Cc1ccc(SCC(=O)Nc2ncc(C)s2)cc1 | – | inactive: -20.4% |
| CC(=O)NCCOc1cccc2ccccc12 | inconclusive [inhibitor, partial curve] | – |
| COc1ccc(CCNc2oc(-c3ccccc3OC)nc2C#N)cc1 | inconclusive [inhibitor, partial curve] | – |
